Data taken from the supplement of paper PMC12015411.
± gives the standard deviation of the averaged measurements. Bacterial growth in Mueller-Hinton broth at 37 °C with the drug at the dose given, alone or with nitroxoline. Checkerboards on E. coli BW25113: OD600 at the end of exponential growth as a fraction of no-drug wells. Colistin series: OD595 at 10.75 h as a fraction of the colistin-free well. 1 = full growth, lower = more inhibition. No active / inactive call per well. Checkerboard doses stop near each drug's IC75, and their values pile up at 1, as if capped there. Colistin and gentamicin are mixtures; one drawing stands for each.

Test system: Escherichia coli BW25113
Assay: growth relative to no-drug wells (fraction of no-drug control); higher = more growth, less inhibition
Procedure: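 8 x 8 checkerboard in cation-adjusted Mueller-Hinton broth at 37 °C; OD600 at the end of exponential growth as a fraction of no-drug wells, two biological replicates.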

CO[C@@]1(NC(=O)C(C(=O)O)c2ccsc2)C(=O)N2[C@@H](C(=O)O)C(C)(C)S[C@@H]21 (some centres not stated) [Temocillin] + Oc1ccc([N+](=O)[O-])c2cccnc12 [nitroxoline]
growth
Conditions	nitroxoline concentration 0.136 µg/ml	nitroxoline concentration 0.255 µg/ml	nitroxoline concentration 0.374 µg/ml	nitroxoline concentration 0.493 µg/ml	nitroxoline concentration 0.612 µg/ml	nitroxoline concentration 0.731 µg/ml	nitroxoline concentration 0.85 µg/ml
0.4088 µg/ml	1	1	0.946 ± 0.046	0.751 ± 0.068	0.642 ± 0.084	0.566 ± 0.049	0.497 ± 0.062
0.7025 µg/ml	1	1	0.973 ± 0.038	0.7834 ± 0.0021	0.655 ± 0.023	0.589 ± 0.031	0.494 ± 0.06
0.8175 µg/ml	1	1	0.966 ± 0.02	0.779 ± 0.018	0.64 ± 0.039	0.578 ± 0.078	0.557 ± 0.013
1.405 µg/ml	0.881 ± 0.17	0.801 ± 0.017	0.849 ± 0.099	0.768 ± 0.12	0.632 ± 0.074	0.556 ± 0.13	0.497 ± 0.19
1.635 µg/ml	0.925 ± 0.11	1	0.909 ± 0.045	0.738 ± 0.032	0.597 ± 0.084	0.547 ± 0.14	0.486 ± 0.14
2.81 µg/ml	0.49 ± 0.24	0.477 ± 0.3	0.6 ± 0.021	0.517 ± 0.027	0.409 ± 0.033	0.33 ± 0.063	0.215 ± 0.014
3.27 µg/ml	0.376 ± 0.049	0.382 ± 0.2	0.426 ± 0.18	0.35 ± 0.098	0.291 ± 0.044	0.199 ± 0.052	0.222 ± 0.016

CN(C)[C@@H]1C(O)=C(C(N)=O)C(=O)[C@@]2(O)C(O)=C3C(=O)c4c(O)cccc4[C@@](C)(O)[C@H]3C[C@@H]12 [Tetracycline]
nitroxoline concentration 0 µg/ml
Conditions	growth
0.0562 µg/ml	0.816 ± 0.12
0.0975 µg/ml	0.686 ± 0.16
0.1125 µg/ml	0.649 ± 0.067
0.195 µg/ml	0.482 ± 0.14
0.225 µg/ml	0.398 ± 0.077
0.39 µg/ml	0.24 ± 0.02
0.45 µg/ml	0.114 ± 0.029

CN(C)[C@@H]1C(O)=C(C(N)=O)C(=O)[C@@]2(O)C(O)=C3C(=O)c4c(O)cccc4[C@@](C)(O)[C@H]3C[C@@H]12 [Tetracycline] + Oc1ccc([N+](=O)[O-])c2cccnc12 [nitroxoline]
growth
Conditions	nitroxoline concentration 0.136 µg/ml	nitroxoline concentration 0.255 µg/ml	nitroxoline concentration 0.374 µg/ml	nitroxoline concentration 0.493 µg/ml	nitroxoline concentration 0.612 µg/ml	nitroxoline concentration 0.731 µg/ml	nitroxoline concentration 0.85 µg/ml
0.0562 µg/ml	1	0.822 ± 0.17	0.663 ± 0.12	0.38 ± 0.088	0.465 ± 0.064	0.388 ± 0.012	0.335 ± 0.048
0.0975 µg/ml	0.8777 ± 0.0044	0.707 ± 0.14	0.605 ± 0.15	0.465 ± 0.093	0.465 ± 0.067	0.367 ± 0.054	0.325 ± 0.028
0.1125 µg/ml	0.756 ± 0.06	0.649 ± 0.12	0.561 ± 0.031	0.498 ± 0.061	0.39 ± 0.14	0.338 ± 0.02	0.306 ± 0.032
0.195 µg/ml	0.611 ± 0.085	0.5782 ± 0.0026	0.494 ± 0.01	0.306 ± 0.0056	0.24 ± 0.049	0.169 ± 0.033	0.164 ± 0.0058
0.225 µg/ml	0.529 ± 0.045	0.525 ± 0.067	0.457 ± 0.022	0.351 ± 0.017	0.251 ± 0.04	0.19 ± 0.045	0.137 ± 0.029
0.39 µg/ml	0.269 ± 0.14	0.253 ± 0.013	0.21 ± 0.046	0.132 ± 0.1	0.0429 ± 0.061	0.0425 ± 0.06	0.0169 ± 0.00095
0.45 µg/ml	0.103 ± 0.14	0.0757 ± 0.11	0.047 ± 0.067	0.0252 ± 0.036	0	0.000219 ± 0.00031	0.0142 ± 0.02

CC(=O)Nc1c2sscc-2n(C)c1=O [Thiolutin]
nitroxoline concentration 0 µg/ml
Conditions	growth
0.0088 µg/ml	0.985 ± 0.017
0.015 µg/ml	1
0.0175 µg/ml	1
0.03 µg/ml	0.948 ± 0.065
0.035 µg/ml	0.926 ± 0.082
0.06 µg/ml	0.874 ± 0.11
0.07 µg/ml	0.939 ± 0.047
